Measurements published in the supplement of paper PMC8728848.
This is one part of the list.

Experiments:
Assay in all cases: glycan array binding signal (z-score within array); higher = stronger binding
Conditions in all cases: glycan notation: IUPAC condensed, linker removed
[1] = molecular target: Fuc(a1-3)[Gal(b1-4)]GlcNAc(b1-4)Gal(b1-4)[Fuc(a1-3)]GlcNAc
Procedure, shortened: (§1)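 The binding signal is a Z-score computed within each array and averaged over linkers. Arrays of the same protein sequence at different concentrations or buffers were also averaged together. Data originate from 3228 arrays in the Consortium for Functional Glycomics database, kept only where the protein sequence was available.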

[2] = molecular target: Fuc(a1-3)[Gal(b1-4)]GlcNAc(b1-4)Gal(b1-4)[Fuc(a1-3)]GlcNAc(b1-4)Gal(b1-4)[Fuc(a1-3)]GlcNAc
Procedure, shortened: as §1

[3] = molecular target: Fuc(a1-3)[Gal(b1-4)]GlcNAc(b1-6)GalNAc
Procedure, shortened: as §1

[4] = molecular target: Fuc(a1-3)[Gal(b1-4)]GlcNAc(b1-6)[Gal(b1-3)GlcNAc(b1-3)]Gal(b1-4)Glc
Procedure, shortened: as §1

[5] = molecular target: Fuc(a1-3)[Gal(b1-4)]GlcNAc(b1-6)[Neu5Ac(a2-3)Gal(b1-3)]GalNAc
Procedure, shortened: as §1

[6] = molecular target: Fuc(a1-3)[Gal(b1-4)]GlcNAc6S
Procedure, shortened: as §1

[7] = molecular target: Fuc(a1-3)[Gal3S(b1-4)]GlcNAc
Procedure, shortened: as §1

[8] = molecular target: Fuc(a1-3)[Gal3S(b1-4)]GlcNAc6S
Procedure, shortened: as §1

[9] = molecular target: Fuc(a1-3)[GalNAc(b1-4)]GlcNAc
Procedure, shortened: as §1

[10] = molecular target: Fuc(a1-3)[GalNAc(b1-4)]GlcNAc6S
Procedure, shortened: as §1

[11] = molecular target: Fuc(a1-3)[GalNAc3S(b1-4)]GlcNAc
Procedure, shortened: as §1

Fuc(a1-4)GlcNAc = molecular target: Fuc(a1-4)GlcNAc
Procedure, shortened: as §1

Fuc(b1-3)GlcNAc = molecular target: Fuc(b1-3)GlcNAc
Procedure, shortened: as §1

Gal(a1-2)Gal = molecular target: Gal(a1-2)Gal
Procedure, shortened: as §1

Gal(a1-3)Gal = molecular target: Gal(a1-3)Gal
Procedure, shortened: as §1

Gal(a1-3)Gal(b1-3)GlcNAc = molecular target: Gal(a1-3)Gal(b1-3)GlcNAc
Procedure, shortened: as §1

[12] = molecular target: Gal(a1-3)Gal(b1-3)GlcNAc(b1-2)Man(a1-3)[Gal(a1-3)Gal(b1-3)GlcNAc(b1-2)Man(a1-6)]Man(b1-4)GlcNAc(b1-4)GlcNAc
Procedure, shortened: as §1

[13] = molecular target: Gal(a1-3)Gal(b1-3)GlcNAc(b1-3)GalNAc
Procedure, shortened: as §1

[14] = molecular target: Gal(a1-3)Gal(b1-3)GlcNAc(b1-6)GalNAc
Procedure, shortened: as §1

[15] = molecular target: Gal(a1-3)Gal(b1-3)[Fuc(a1-4)]GlcNAc(b1-2)Man(a1-3)[Gal(a1-3)Gal(b1-3)[Fuc(a1-4)]GlcNAc(b1-2)Man(a1-6)]Man(b1-4)GlcNAc(b1-4)GlcNAc
Procedure, shortened: as §1

Gal(a1-3)Gal(b1-4)Glc = molecular target: Gal(a1-3)Gal(b1-4)Glc
Procedure, shortened: as §1

Gal(a1-3)Gal(b1-4)GlcNAc = molecular target: Gal(a1-3)Gal(b1-4)GlcNAc
Procedure, shortened: as §1

[16] = molecular target: Gal(a1-3)Gal(b1-4)GlcNAc(b1-3)GalNAc
Procedure, shortened: as §1

[17] = molecular target: Gal(a1-3)Gal(b1-4)GlcNAc(b1-6)GalNAc
Procedure, shortened: as §1

[18] = molecular target: Gal(a1-3)Gal(b1-4)[Fuc(a1-3)]GlcNAc
Procedure, shortened: as §1

[19] = molecular target: Gal(a1-3)Gal(b1-4)[Fuc(a1-3)]GlcNAc(b1-2)Man(a1-3)[Gal(a1-3)Gal(b1-4)[Fuc(a1-3)]GlcNAc(b1-2)Man(a1-6)]Man(b1-4)GlcNAc(b1-4)GlcNAc
Procedure, shortened: as §1

Gal(a1-3)GalNAc = molecular target: Gal(a1-3)GalNAc
Procedure, shortened: as §1

[20] = molecular target: Gal(a1-3)[Gal(a1-4)]Gal(b1-4)GlcNAc
Procedure, shortened: as §1

[21] = molecular target: Gal(a1-4)Gal(b1-3)GlcNAc(b1-2)Man(a1-3)[Gal(a1-4)Gal(b1-3)GlcNAc(b1-2)Man(a1-6)]Man(b1-4)GlcNAc(b1-4)GlcNAc
Procedure, shortened: as §1

Gal(a1-4)Gal(b1-4)Glc = molecular target: Gal(a1-4)Gal(b1-4)Glc
Procedure, shortened: as §1

B1: Morniga (Morus nigra) (protein)
chain: MAGTSTNTQTTGTSQTVEVGLWGGPGGNAWDDGSYTGIREINLSHGDAIGAFSVIYDLNGQPFTGPTHPGNEPSFKTVKITLDFPNEFLVSVSGYTGVLPRLATGKDVIRSLTFKTNKKTYGPYGKEEGTPFSLPIENGLIVGFKGRSGFVVDAIGVHLS
[1]
  glycan array binding signal (z-score): -0.338
[2]
  glycan array binding signal (z-score): -0.343
[3]
  glycan array binding signal (z-score): -0.317
[4]
  glycan array binding signal (z-score): -0.34
[5]
  glycan array binding signal (z-score): -0.305
[6]
  glycan array binding signal (z-score): -0.337
[7]
  glycan array binding signal (z-score): -0.342
[8]
  glycan array binding signal (z-score): -0.324
[9]
  glycan array binding signal (z-score): -0.324
[10]
  glycan array binding signal (z-score): -0.335
[11]
  glycan array binding signal (z-score): -0.322
Fuc(a1-4)GlcNAc
  glycan array binding signal (z-score): -0.336
Fuc(b1-3)GlcNAc
  glycan array binding signal (z-score): -0.329
Gal(a1-2)Gal
  glycan array binding signal (z-score): -0.335
Gal(a1-3)Gal
  glycan array binding signal (z-score): -0.337
Gal(a1-3)Gal(b1-3)GlcNAc
  glycan array binding signal (z-score): -0.345
[12]
  glycan array binding signal (z-score): 0.162
[13]
  glycan array binding signal (z-score): -0.343
[14]
  glycan array binding signal (z-score): -0.34
[15]
  glycan array binding signal (z-score): 0.355
Gal(a1-3)Gal(b1-4)Glc
  glycan array binding signal (z-score): -0.338
Gal(a1-3)Gal(b1-4)GlcNAc
  glycan array binding signal (z-score): -0.338
[16]
  glycan array binding signal (z-score): -0.34
[17]
  glycan array binding signal (z-score): -0.328
[18]
  glycan array binding signal (z-score): -0.335
[19]
  glycan array binding signal (z-score): 0.347
Gal(a1-3)GalNAc
  glycan array binding signal (z-score): -0.336
[20]
  glycan array binding signal (z-score): -0.34
[21]
  glycan array binding signal (z-score): 2.59
Gal(a1-4)Gal(b1-4)Glc
  glycan array binding signal (z-score): -0.333
